EC50 and Kd data for two molecules are collected here from patent US20240366718A1 (IMMUNOS THERAPEUTICS, published 2024).

The target of assay [1] is T1, LILRB2 (c-terminally biotinylated, BPS Bioscience #100335) (human, UniProt Q8N423 22-460, limits assumed, C-terminal biotin).
T1 construct: Bought biotinylated protein; also called human LILRB2; biotinylated LILRB2
In words: ELISA, biotinylated LILRB2 on streptavidin plates, detection with APC anti-human IgG. (In general: In an ELISA, binding on a coated surface is turned into a signal by an enzyme label.)

For assay [2], the target named is T1, LILRB2 (c-terminally biotinylated, BPS …). In words: BLI (Octet Red 96e), biotinylated LILRB2 on streptavidin sensors, bivalent analyte model. On the technique in general: BLI is a label-free optical method that tracks binding on a fibre tip over time.

T1 sequence (Q8N423 22-460 limits assumed): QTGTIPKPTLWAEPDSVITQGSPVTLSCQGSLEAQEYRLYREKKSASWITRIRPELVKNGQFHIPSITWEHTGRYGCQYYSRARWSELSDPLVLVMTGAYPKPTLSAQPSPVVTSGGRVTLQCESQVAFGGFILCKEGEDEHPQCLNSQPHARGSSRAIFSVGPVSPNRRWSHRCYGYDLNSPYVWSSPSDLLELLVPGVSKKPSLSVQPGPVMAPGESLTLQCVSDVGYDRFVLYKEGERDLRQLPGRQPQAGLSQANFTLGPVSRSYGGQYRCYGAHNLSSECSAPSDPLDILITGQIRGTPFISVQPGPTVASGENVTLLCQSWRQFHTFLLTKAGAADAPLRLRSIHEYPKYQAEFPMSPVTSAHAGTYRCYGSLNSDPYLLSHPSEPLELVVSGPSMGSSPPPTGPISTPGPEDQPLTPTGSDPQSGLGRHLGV

B1: non-β2m-associated HLA-B57 IgG4 fusion protein (Fc fusion)
MHC heavy: GSHSMRYFYTAMSRPGRGEPRFIAVGYVDDTQFVRFDSDAASPRMAPRAPWIEQEGPEYWDGETRNMKASAQTYRENLRIALRYYNQSEAGSHIIQVMYGCDVGPDGRLLRGHDQSAYDGKDYIALNEDLSSWTAADTAAQITQRKWEAARVAEQLRAYLEGLCVEWLRRYLENGKETLQRADPPKTHVTHHPISDHEATLRCWALGFYPAEITLTWQRDGEDQTQDTELVETRPAGDRTFQKWAAVVVPSGEEQRYTCHVQHEGLPKPLTLRWEPSSQSGGGGSGGGGS[letters of human IgG4 Fc with S228P (EU numbers) omitted]
notes: β2m removed under acidic conditions; also called HLA-B57-Fc; natural HLA-B57-derived fusion protein control
In the case of B1, in assay [1], the concentration for a half-maximal effect (EC50) (in general, the concentration giving half of the maximal effect) was 21 nM.

B2: non-β2m-associated HLA-B57(A46E/V97R) IgG4 fusion protein (Fc fusion)
MHC heavy: GSHSMRYFYTAMSRPGRGEPRFIAVGYVDDTQFVRFDSDAASPRMEPRAPWIEQEGPEYWDGETRNMKASAQTYRENLRIALRYYNQSEAGSHIIQRMYGCDVGPDGRLLRGHDQSAYDGKDYIALNEDLSSWTAADTAAQITQRKWEAARVAEQLRAYLEGLCVEWLRRYLENGKETLQRADPPKTHVTHHPISDHEATLRCWALGFYPAEITLTWQRDGEDQTQDTELVETRPAGDRTFQKWAAVVVPSGEEQRYTCHVQHEGLPKPLTLRWEPSSQSGGGGSGGGGS[letters of human IgG4 Fc with S228P (EU numbers) omitted]
notes: β2m separated by size exclusion chromatography at pH 3.0; also called HLA-B57^(A46E/V97R)-Fc; variant HLA-B57 fusion protein
Molecule B2 yielded a Kd in assay [2] of 20.3 nM. This molecule also came in with an EC50 in assay [1] of 8.3 nM.
